From patent US11685745B2, “Substituted benzoxazole and benzofuran compounds as PDE7 inhibitors” (Dart NeuroScience, LLC, priority 2017, dated 2023)

target: N-terminal truncated recombinant human PDE7B enzyme (Homo sapiens (Human), UniProt Q9NP56); assay: biochemical

Compared with O=C1Nc2c(Cl)cc3cc(C(=O)N[C@H]4CC[C@@H](F)C4)oc3c2C2(CCCCC2)N1 [Example 383, 5′-Chloro-N-[(1S,3R)-3-fluorocyclopentyl]-7′-oxo-7′,8′-dihydro-6′H-spiro[cyclohexane-1,9′-furo[2,3-f]quinazoline]-2′-carboxamide], CN(CCO)C(=O)c1cc2cc(Cl)c3c(c2o1)C1(CCCCC1)NC(=O)N3 [Example 262, 5′-Chloro-N-(2-hydroxyethyl)-N-methyl-7′-oxo-7′,8′-dihydro-6′H-spiro[cyclohexane-1,9′-furo[2,3-f]quinazoline]-2′-carboxamide] is lower in IC50: 100 to 1000 nM for the first, 10 to 100 nM for the second. The second is the more potent here.

Cc1n[nH]c(C)c1CCN(C)C(=O)c1cc2cc(Cl)c3c(c2o1)C1(CCCCC1)NC(=O)N3 [Example 439, 5′-Chloro-N-[2-(3,5-dimethyl-1H-pyrazol-4-yl)ethyl]-N-methyl-7′-oxo-7′,8′-dihydro-6′H-spiro[cyclohexane-1,9′-furo[2,3-f]quinazoline]-2′-carboxamide] and Cc1nc(CCNC(=O)c2cc3cc(Cl)c4c(c3o2)C2(CCCCC2)NC(=O)N4)sc1C [Example 466, 5′-Chloro-N-[2-(dimethyl-1,3-thiazol-2-yl)ethyl]-7′-oxo-7′,8′-dihydro-6′H-spiro[cyclohexane-1,9′-furo[2,3-f]quinazoline]-2′-carboxamide] fall in the same range of IC50: 10 to 100 nM for the first, 10 to 100 nM for the second.

COC[C@H]1CCN(C(=O)c2nc3cc(Cl)c4c(c3o2)C2(CCCCC2)NC(=O)N4)C1 [Example 204, 5-Chloro-2-[(3S)-3-(methoxymethyl)pyrrolidine-1-carbonyl]-7,8-dihydro-6H-spiro[[1,3]oxazolo[5,4-f]quinazoline-9,1′-cyclohexane]-7-one] and COC(=O)C1CCCN(Cc2nc3cc(Cl)c4c(c3o2)C2(CCCCC2)NC(=O)N4)C1 (stereo not shown) [Example 130, Methyl 1-{5-chloro-7-oxo-7,8-dihydro-6H-spiro[[1,3]oxazolo[5,4-f]quinazoline-9,1′-cyclohexane]-2-ylmethyl}piperidine-3-carboxylate] fall in the same range of IC50: 10 to 100 nM for the first, 10 to 100 nM for the second.

O=C1Nc2c(Cl)cc3cc(C(=O)N4CCN5CCCC5C4)oc3c2C2(CCCCC2)N1 (stereo not shown) [Example 297, 5′-Chloro-2′-{octahydropyrrolo[1,2-a]piperazine-2-carbonyl}-7′,8′-dihydro-6′H-spiro[cyclohexane-1,9′-furo[2,3-f]quinazoline]-7′-one] and O=C1Nc2c(Cl)cc3cc(C(=O)N4CCN(c5ccccn5)CC4)oc3c2C2(CCCCC2)N1 [Example 311, 5′-Chloro-2′-[4-(pyridin-2-yl)piperazine-1-carbonyl]-7′,8′-dihydro-6′H-spiro[cyclohexane-1,9′-furo[2,3-f]quinazoline]-7′-one] fall in the same range of IC50: 10 to 100 nM for the first, 10 to 100 nM for the second.

First: O=C1Nc2c(Cl)cc3cc(C(=O)N4CCC5(CC(=O)c6ccccc6O5)C4)oc3c2C2(CCCCC2)N1 (stereo not shown) [Example 401, 5′-Chloro-2′-({4-oxo-3,4-dihydrospiro[1-benzopyran-2,3′-pyrrolidine]-1′-yl}carbonyl)-7′,8′-dihydro-6′H-spiro[cyclohexane-1,9′-furo[2,3-f]quinazoline]-7′-one]
Second: O=C1Nc2c(Cl)cc3cc(C(=O)c4ccncc4)oc3c2C2(CCCCC2)N1 [Example 574, 5′-Chloro-2′-(pyridine-4-carbonyl)-7′,8′-dihydro-6′H-spiro[cyclohexane-1,9′-furo[2,3-f]quinazoline]-7′-one]
The IC50 of the first is lower: 10 to 100 nM for the first, 100 to 1000 nM for the second. The first is the more potent here.

CN(C)C1CCN(Cc2nc3cc(Cl)c4c(c3o2)C2(CCCCC2)NC(=O)N4)CC1 [Example 113, 5-Chloro-2-{[4-(dimethylamino)piperidin-1-yl]methyl}-7,8-dihydro-6H-spiro[[1,3]oxazolo[5,4-f]quinazoline-9,1′-cyclohexane]-7-one] and CC1CCCCN1Cc1nc2cc(Cl)c3c(c2o1)C1(CCCCC1)NC(=O)N3 (stereo not shown) [Example 98, 5-Chloro-2-[(2-methylpiperidin-1-yl)methyl]-7,8-dihydro-6H-spiro[[1,3]oxazolo[5,4-f]quinazoline-9,1′-cyclohexane]-7-one] fall in the same range of IC50: 100 to 1000 nM for the first, 100 to 1000 nM for the second.

CCN(CC)C(=O)CNCc1nc2cc(Cl)c3c(c2o1)C1(CCCCC1)NC(=O)N3 [Example 141, 2-({5-Chloro-7-oxo-7,8-dihydro-6H-spiro[[1,3]oxazolo[5,4-f]quinazoline-9,1′-cyclohexane]-2-ylmethyl}amino)-N,N-diethylacetamide] and CCN(C)C(=O)CNCc1nc2cc(Cl)c3c(c2o1)C1(CCCCC1)NC(=O)N3 [Example 56, 2-({5-Chloro-7-oxo-7,8-dihydro-6H-spiro[[1,3]oxazolo[5,4-f]quinazoline-9,1′-cyclohexane]-2-ylmethyl}amino)-N-ethyl-N-methylacetamide] fall in the same range of IC50: 10 to 100 nM for the first, 10 to 100 nM for the second.

CC(C)N1CCN(Cc2cc3cc(Cl)c4c(c3o2)C2(CCCCC2)NC(=O)N4)CC1 [Example 29, 5′-Chloro-2′-((4-isopropylpiperazin-1-yl)methyl)-6′H-spiro[cyclohexane-1,9′-furo[2,3-f]quinazolin]-7′(8′H)-one] and O=C1Nc2c(Cl)cc3cc(CN4CCN(c5ccncc5)CC4)oc3c2C2(CCCCC2)N1 [Example 474, 5′-Chloro-2′-{[4-(pyridin-4-yl)piperazin-1-yl]methyl}-7′,8′-dihydro-6′H-spiro[cyclohexane-1,9′-furo[2,3-f]quinazoline]-7′-one] fall in the same range of IC50: 100 to 1000 nM for the first, 100 to 1000 nM for the second.

Cn1cncc1CNC(=O)c1cc2cc(Cl)c3c(c2o1)C1(CCCCC1)NC(=O)N3 [Example 364, 5′-Chloro-N-[(1-methyl-1H-imidazol-5-yl)methyl]-7′-oxo-7′,8′-dihydro-6′H-spiro[cyclohexane-1,9′-furo[2,3-f]quinazoline]-2′-carboxamide] and CC(C)n1cnnc1CNCc1cc2cc(Cl)c3c(c2o1)C1(CCCCC1)NC(=O)N3 [Example 520, 5′-Chloro-2′-[({[4-(propan-2-yl)-4H-1,2,4-triazol-3-yl]methyl}amino)methyl]-7′,8′-dihydro-6′H-spiro[cyclohexane-1,9′-furo[2,3-f]quinazoline]-7′-one] fall in the same range of IC50: 10 to 100 nM for the first, 10 to 100 nM for the second.

CC(C)N(CCO)Cc1cc2cc(Cl)c3c(c2o1)C1(CCCCC1)NC(=O)N3 [Example 473, 5′-Chloro-2′-{[(2-hydroxyethyl)(propan-2-yl)amino]methyl}-7′,8′-dihydro-6′H-spiro[cyclohexane-1,9′-furo[2,3-f]quinazoline]-7′-one] and CCCN(CCO)Cc1cc2cc(Cl)c3c(c2o1)C1(CCCCC1)NC(=O)N3 [Example 566, 5′-Chloro-2′-{[(2-hydroxyethyl)(propyl)amino]methyl}-7′,8′-dihydro-6′H-spiro[cyclohexane-1,9′-furo[2,3-f]quinazoline]-7′-one] fall in the same range of IC50: 100 to 1000 nM for the first, 100 to 1000 nM for the second.

COc1cncc(CNCc2nc3cc(Cl)c4c(c3o2)C2(CCCCC2)NC(=O)N4)c1 [Example 61, 5-Chloro-2-({[(5-methoxypyridin-3-yl)methyl]amino}methyl)-7,8-dihydro-6H-spiro[[1,3]oxazolo[5,4-f]quinazoline-9,1′-cyclohexane]-7-one] and O=C1Nc2c(Cl)cc3nc(CN4CC5(CCOCC5)C4)oc3c2C2(CCCCC2)N1 [Example 76, 5-Chloro-2-{7-oxa-2-azaspiro[3.5]nonan-2-ylmethyl}-7,8-dihydro-6H-spiro[[1,3]oxazolo[5,4-f]quinazoline-9,1′-cyclohexane]-7-one] fall in the same range of IC50: 10 to 100 nM for the first, 10 to 100 nM for the second.
